The source of these data is the supplement of paper PMC4604168 (melanoma cell lines).

This is one part of the list. Most values come without repeats; read them as rough.
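Note: cell number obtained by counting DAPI-stained nuclei in high-throughput microscope images with image analysis software, screen run in 1,536-well plates.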

For this assay, the system named is IPC-298. Put plainly: cell count relative to DMSO control; melanoma cells; higher = more viable cells. The settings on record: library dose: low library concentration; 72 h.
As for `Clc1ccc(Nc2nnc(Cc3ccncc3)c3ccccc23)cc1` [vatalanib] + Cc1nc(Nc2ncc(C(=O)Nc3c(C)cccc3Cl)s2)cc(N2CCN(CCO)CC2)n1 [dasatanib] (first compound 2 µM, partner dose 0.004 µM), the cell count came to 95.1%.
As for `C#Cc1cccc(Nc2ncnc3cc(OCCOC)c(OCCOC)cc23)c1` [erlotinib] + Nc1cccc2c1CN(C1CCC(=O)NC1=O)C2=O [lenalidomide] (first compound 0.8 µM, partner dose 1 µM), the figure is 90%.
As for `Clc1ccc(Nc2nnc(Cc3ccncc3)c3ccccc23)cc1` [vatalanib] + Cn1nnc2c(C(N)=O)ncn2c1=O [temozolomide] (first compound 2 µM, partner dose 2 µM), the figure is 95.4%; as for `Clc1ccc(Nc2nnc(Cc3ccncc3)c3ccccc23)cc1` [vatalanib] + C[C@]1(c2nc3c(C(N)=O)cccc3[nH]2)CCCN1 [Veliparib] (first compound 2 µM, partner dose 1.4 µM), 84.3%.
For `C#Cc1cccc(Nc2ncnc3cc(OCCOC)c(OCCOC)cc23)c1` [erlotinib] + C[C@]1(c2nc3c(C(N)=O)cccc3[nH]2)CCCN1 [Veliparib] (first compound 0.8 µM, partner dose 1.4 µM), the cell count was 89.9%.
For `OCc1c[nH]c2ccccc12` [Indole-3-carbinol] + Cn1nnc2c(C(N)=O)ncn2c1=O [temozolomide] (first compound 0.8 µM, partner dose 2 µM), the cell count worked out at 102%.
